Among all 48,000 compounds or so, about 120 (0.25%) were called active. Another 4% or so got no clear call; they are omitted. Calls come from the whole dose curve; as a rule, active = well fitted activation curve with a large enough effect; inconclusive = small, poorly fitted or top-dose-only effect, or another doubt; inactive = no such curve, though single readings can be large or run the other way. This is one part of the list.
Assay: Primary qHTS for Identification of Small Molecule Activators of Huntingtin-Antisense Promoter Activity; note: nearly all actives have a fitted effect of over 55% in size
Conditions: HEK293 HTT-AS promoter firefly luciferase reporter, 24 h; series mostly up to 57.5 µM; activity change, positive = activation: at the top concentration
How it was run: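 HEK293 Fluc reporter, 2,500 cells/well, 24 h pre-culture; cpds up to 57.5 uM final, 24 h 37 degrees C; Dual-Glo, 10 min RT; normalized vehicle = 0%, zero RLU = -100%.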

Activity change, positive = activation, inactive:
Cc1cc(NC(=O)c2cc(-c3ccc(Cl)c(Cl)c3)on2)n(-c2ccccc2)n1 -8.34%
CCOc1ccc(CNC(=O)C2CCN(C(=O)N3CC(CC)Oc4ccc(C)cc43)CC2)cc1OC (stereo not drawn) -36.5%
COc1ccccc1NC(=O)Cn1c(=O)n(CC2CCC(C(=O)NCCc3ccccc3)CC2)c(=O)c2ccccc21 (stereo not drawn) -15%
CCOC(=O)CSc1nc2sc3c(c2c(=O)n1-c1ccc(OC)cc1)CC(C(C)C)OC3 (stereo not drawn) 3.26%
Cc1ccccc1N1CC(c2nc3ccccc3n2Cc2ccc(Br)cc2)CC1=O (stereo not drawn) -53.3%
Cc1cc(Br)ccc1NC(=O)c1c(C)oc2ncnc(N3CCCCC3)c12 -14.5%
COc1cc2nccc(Oc3ccc(NC(=O)Nc4ccc(F)cc4F)c(F)c3)c2cc1OC 2.88%
CCN(CC)CCOC(=O)c1ccc(NC(=O)c2cc3cc(OC)ccc3oc2=O)cc1 -9.22%
COCCNC(=O)CN1C(=O)COc2ccc(S(=O)(=O)N3CCCC3)cc21 -15.7%
Cc1nnc(SCC(=O)Nc2ccc(N(C)C)cc2)[nH]c1=O -9.8%
CCOC(=O)N1CCc2c(sc3c2C(=O)NC(c2ccc(C(=O)OC)cc2)N3)C1 (stereo not drawn) -19.6%
CCc1ccc(NC(=O)Cn2c(=O)n(CCCC(=O)NCCc3ccc(OC)c(OC)c3)c(=O)c3ccccc32)cc1 -11%
Cc1ccccc1NC(=O)CCn1nc(-c2ccccc2)c2ccccc2c1=O -11.2%
CCOc1ccc(Sc2cc(C(=O)NCc3ccccc3Cl)c3ccccc3n2)cc1 -22.5%
Cc1cccc(NC(=O)N2CCN3CCCCC3C2)c1C (stereo not drawn) -1.52%
COc1cc(NC(=O)CCS(=O)(=O)c2ccc3c(c2)n(C)c(=O)c(=O)n3C)cc(OC)c1 -3.37%
Cc1cccc(C)c1Nc1c(-c2ccsc2)nc2cccc(C)n12 -27.4%
COc1ccccc1N1CCN(c2csc3ccccc3c2=O)CC1 24.6%
COc1cccc(NC(=O)Cn2c(-c3nonc3N)nc3ccccc32)c1 -11.4%
COc1ccccc1CNC(=O)CCCCn1c(=O)c2ccccc2n(CC(=O)Nc2cccc(Cl)c2)c1=O -35.1%
CCOc1ccc(/C=C/c2nc(C#N)c(N3CCC(C)CC3)o2)cc1 -24.3%
COC(=O)c1cc2oc3ccccc3c2n1Cc1ccccc1Cl -8.82%
COc1ccc(CNC(=O)C(=O)Nc2cccc(C)c2C)cc1 -8.73%
Cc1ccc(-n2ncc3c(N4CCN(c5ccc(F)cc5)CC4)ncnc32)cc1 -11.5%
COc1ccc2oc(-c3ccc(NC(=O)c4ccc(Cl)cc4Cl)cc3)nc2c1 -17.8%
O=c1c(-c2cc(-c3ccccc3)nc3c2COc2ccccc2-3)coc2ccc(Cl)cc12 -15.5%
CN1CCN(C2=Nc3ccccc3Sc3ccc(Cl)cc32)CC1 -5.91%
O=C(Nc1cc(Cl)ccc1Cl)c1cc(S(=O)(=O)N2CCc3ccccc3C2)ccc1F -13.7%
CCc1ccc(NC(=O)C2CCCN(c3nnc(C)c4c(C)n(-c5ccccc5)nc34)C2)cc1 (stereo not drawn) 2.26%
CCN1CCN(c2cc(C)c3cc(NC(=O)/C=C/c4ccc(C)cc4)ccc3n2)CC1 4.97%
Cc1cccc(C(=O)Nc2ccc(N3CCC(N4CCCCC4)CC3)c(C(=O)O)c2)c1 -7.71%
COc1cc(CNc2ccc3[nH]c(=O)[nH]c3c2)cc(Br)c1OCc1ccccc1F -25.8%
Cc1cccc(CN2CCN(CC(=O)Nc3c(C)cccc3C)S2(=O)=O)c1 -12%
Cc1ccc(C)n1-c1nnc(N2CCCC(C(=O)NCc3cccc(Br)c3)C2)s1 (stereo not drawn) -16.7%
COCCNC(=O)CSc1nc(-c2ccccc2)[nH]c1-c1ccc(C)cc1 -18.8%
CC1=C(C(=O)NCc2ccc(Cl)cc2)C2(CCC(C)CC2)OC1=O (stereo not drawn) -39.2%
NC1=NC(c2cc(F)cc(F)c2)n2c(nc3ccccc32)N1 (stereo not drawn) -9.25%
Cc1ccc(CNC(=O)CCc2c(C)nc3c4c(C)cc(C)nc4nn3c2C)cc1 4.88%
CCOc1cc(C=C2C(=O)N(c3ccccc3)N=C2C)cc(Cl)c1OCC(=O)OC -27.3%
Cc1c(Cl)cccc1-n1nc(C)c2c(C)cc(=O)n(CC(=O)N3CCCc4ccccc43)c21 -4.74%
CCCNC(=O)C1CCN(c2nc3ccc(C)cc3[nH]2)CC1 22.1%
CCCOc1ccc(CNC(=O)C2CCN(C(=O)c3sccc3-n3cccc3)CC2)cc1 -31.9%
Cc1cc2oc3c(c(=O)c2cc1C)C(c1ccc(C(C)C)cc1)N(c1nc(C)c(C)s1)C3=O (stereo not drawn) -8.18%
Cc1ccc(CNC(=O)CCCN2C(=O)CCn3nc(-c4cccn4C)cc32)cc1 -27.3%
COc1ccc(-c2nc3ccccc3n3c(-c4ccc(OC)cc4)c4c(=O)n(C)c(=O)n(C)c4c23)cc1 10.6% [at 11.5 µM, percent change from vehicle, -100% = no light]
CCOC(=O)c1ccc2c(c1)N(Cc1ccc(F)cc1Cl)C(=O)c1ccccc1S2 -19.9%
Cc1cnc(=O)[nH]c1SCC(=O)Nc1cc(C(F)(F)F)ccc1Cl -5.03%
CCOC(=O)Cn1c(=O)n(C2CCCCC2)c2nc(-c3ccc(OC)cc3)nc(C(N)=O)c21 -0.84%
Nc1ccc(C(=O)Nc2ccccc2N)cc1 29.1%
COc1ccc(Cc2nc3ccc(C(=O)NCCc4ccc(OC)c(OC)c4)cc3o2)cc1 -28.3%
COc1cc(NC(=O)c2ccc(-c3ccc(Cl)cc3)o2)cc(OC)c1 -5.82%
Cn1c(=O)n(C)c2cc(CNCc3ccccc3)ccc21 -2.01%
Cc1cc(C)c(S(=O)(=O)Nc2cc(Cl)c3oc4c(c3c2)C(=O)CCC4)cc1C -7.27%
Cc1ccc(CNS(=O)(=O)c2cc(Br)cc3c2N(C(=O)C2CC2)CC3)cc1 -13.3%
CCOc1ccc(C(=O)Nc2ccc(-c3nnc4n3CCCCC4)cc2)cc1OCC -10.1%
Cc1cccc2c(=O)cc(CSCC(=O)Nc3ccc(Cl)cc3)[nH]c12 -28.1%
Cc1ccc(Cn2c(=O)n(Cc3ccccc3)c(=O)c3c(C)c(C)sc32)cc1 3.01%
Cc1ccc(CNC(=O)C(=O)NCC(c2ccco2)S(=O)(=O)c2ccc(C)cc2)cc1 (stereo not drawn) -2.57%
CCCCOc1cccc(C(=O)N(Cc2ccc(Br)o2)C2CCS(=O)(=O)C2)c1 (stereo not drawn) -30.3%
Cc1cccc(C(=O)Nc2ccc(C(=O)OCc3cc(=O)n4c(C)csc4n3)cc2)c1 -34.7%
NC(=O)CSc1oc(-c2cccs2)nc1S(=O)(=O)c1ccc(Br)cc1 -9.92%
Cc1cc(F)ccc1NC(=O)C1CCN(S(=O)(=O)c2ccc3c(c2)CCCC(=O)N3)CC1 -20.6%
O=C(Cn1c(=O)c(C(F)(F)F)nc2ccccc21)Nc1ccc(Br)cc1F -3.56%
COc1ccc(S(=O)(=O)N2CCN(c3ccccc3)CC2)cc1-c1noc(C)n1 -13.9%
COC(=O)c1ccc(NC(=O)N2CCN(c3nnc(C)c4c(C)n(-c5ccccc5)nc34)CC2)cc1 -4.77%
O=C(c1cnc2c(c1)COc1ccccc1-2)c1ccccc1O 23.9%
Cn1nc(-c2ccccc2F)c2cc(C(=O)Nc3cc(F)ccc3F)sc21 -11.1%
Cc1ccccc1Cn1cc(CCC(=O)NCc2cccc(Br)c2)c2ccccc21 -35.6%
COc1ccc(S(=O)(=O)NCC(c2ccco2)N2CCN(c3ccc(F)cc3)CC2)cc1 (stereo not drawn) -34.9%
CC(C)(C)NC(=O)CSc1nc(-c2ccc(F)cc2)cc(C(F)(F)F)n1 -27.2%
CC(C)c1cnc2c(c1SCC(=O)c1ccccc1)c(=O)n(C)c(=O)n2C -23.6%
O=C(NCc1ccccc1)c1ccc2c(c1)N(Cc1ccccc1)C(=O)c1ccccc1S2(=O)=O -20.2%
Cc1c(-c2nnc(SCC(=O)Nc3ccc(Br)cc3)o2)nnn1-c1ccc(F)cc1 2.25%
O=C(Cn1c(=O)n(Cc2ccc(C(=O)NCc3ccc4c(c3)OCO4)cc2)c(=O)c2ccccc21)Nc1ccc(F)cc1F -15.4%
COC(=O)c1ccn(-c2nc(-c3ccc(Cl)cc3)cc(C(F)(F)F)n2)n1 -23.5%
c1ccc2c(Oc3nc(Nc4ccc(N5CCOCC5)cc4)c4ncn(C5CCCCC5)c4n3)cccc2c1 -10.2%
CCOc1ccc(CNCCSc2nnnn2C)cc1OC -6.83%
O=C(CS(=O)(=O)c1cccc2nsnc12)N1CCN(c2ccccc2)CC1 -10.2%
COC(=O)c1ccccc1NC(=O)c1cn2c3c(ccc(Cl)c3c1=O)OC(C)C2 (stereo not drawn) -14.8%
CCCCNC(=O)C1CCN(c2nc3ccc(C)cc3[nH]2)CC1 8.35%
CC(C)c1ccc(CN(Cc2ccco2)c2cnc(S(C)(=O)=O)nc2C(=O)Nc2ccccc2)cc1 -21.8%
CC(C)(C)C(=O)Nc1nc2nc(-c3ccccc3)cc(=O)n2[nH]1 21.2%
CCCCNC(=O)CN1C(=O)c2c(c3ccccc3n2C)C1c1ccc(OC)cc1 (stereo not drawn) -19%
Cc1ccc2oc(-c3cccc(NC(=O)c4ccc(N5CCC(C)CC5)c([N+](=O)[O-])c4)c3)nc2c1 3.64%
COc1ccc(Nc2nc(Nc3ccc(OC)cc3OC)nc(N3CCOCC3)n2)c(OC)c1 -31.1%
COc1ccc(C2CC(=O)c3cc(-c4nc(-c5cccc([N+](=O)[O-])c5)cs4)c(=O)n(-c4ccc(F)cc4)c3C2)cc1 (stereo not drawn) -8.18%
CCc1cccc(C)c1NC(=O)c1cc(S(=O)(=O)N2CCC3(CC2)OCCO3)ccc1F -22.5%
Cc1oc(-c2ccc(Cl)cc2)nc1CN1CCCC(C(=O)NCCc2ccccc2)C1 (stereo not drawn) -33.1%
C=CCn1c(=O)n([C@@H]2O[C@H](CO)[C@@H](O)[C@H]2O)c2nc(N)[nH]c(=O)c21 -2.47%
CC(=O)c1ccc(NC(=O)CSc2c(C(C)C)cnc3c2c(=O)n(C)c(=O)n3C)cc1 -15.8%
C[C@]12C=CC(=O)C=C1CC[C@@H]1[C@@H]2C(=O)C[C@@]2(C)[C@H]1CC[C@]2(O)C(=O)CO
COc1ccc(CNc2nc3c(-c4cccc(F)c4)nnn3c3ccccc23)cc1 21.2%
COc1ccc(N(C)C(=O)c2cc3c(s2)-c2c(C)cccc2OC3)c(OC)c1 -24.7%

— PubChem BioAssay AID1508624 (National Center for Advancing Translational Sciences (NCATS), 2021)
